Data on 25 compounds can be found in the antibiotic and cytotoxicity screens of Wong et al. (2023).

In one experiment the test system is HSkMC. Put plainly: cytotoxicity call (relative viability < 0.9). The following applies: 10 µM.
The subject of the next experiment is HepG2. Put plainly: cytotoxicity call (relative viability < 0.9). The following applies: 10 µM.
The test system of the next experiment is S. aureus RN4220. Put plainly: growth inhibition call (relative growth <= 0.2). The settings on record: 50 µM.

Structures are written as SMILES. The list shows a part of the results.

In the case of `Cc1noc(C)c1NC(=O)Nc1ccc2c(c1)C(=O)N([C@H](C)CO)C[C@H](C)[C@H](CN(C)C(=O)Cc1ccccc1)OCCCC[C@H](C)O2`, the cytotoxicity call in the experiment with HSkMC and in the experiment with HepG2 was “inactive” in each case. Further, in the experiment on S. aureus RN4220, the growth inhibition call was “inactive”.
With `CC(C)Cc1cc(CN)on1`, the cytotoxicity call in the experiment with HSkMC and in the experiment on HepG2 was “inactive” in each case. In addition, the growth inhibition call in the experiment on S. aureus RN4220 is “inactive”.
`C[C@@H]1CCCCO[C@H](CN(C)S(C)(=O)=O)[C@@H](C)CN([C@@H](C)CO)C(=O)c2cc(NC(=O)CCCN(C)C)ccc2O1`: the cytotoxicity call with HSkMC and with HepG2 was “inactive” each time. Further, the growth inhibition call with S. aureus RN4220 was “inactive”.
On to `C[C@@H]1CN([C@@H](C)CO)C(=O)CCCn2cc(nn2)CO[C@@H]1CN(C)C(=O)Nc1cccc(Oc2ccccn2)c1`, for which the cytotoxicity call with HSkMC and in the experiment on HepG2 was “inactive” each time. For the same compound, the growth inhibition call in the experiment on S. aureus RN4220 is “inactive”.
Regarding `C[C@H]1CN([C@@H](C)CO)C(=O)c2cc(C#CCN(C)C)cnc2O[C@H]1CN(C)S(C)(=O)=O`, the cytotoxicity call with HSkMC and in the experiment on HepG2 was “inactive” throughout. Besides, in the experiment on S. aureus RN4220, the growth inhibition call was “inactive”.
In the case of `O=C(C[C@H]1C[C@H]2c3cc(NS(=O)(=O)c4ccc(F)cc4)ccc3O[C@H]2[C@H](CO)O1)N1CCOCC1`, the cytotoxicity call with HSkMC and in the experiment on HepG2 was “inactive” throughout. For the same compound, the growth inhibition call with S. aureus RN4220 is “inactive”.
Regarding `C[C@@H]1CCCCO[C@@H](CN(C)C(=O)Nc2ccccc2)[C@@H](C)CN([C@H](C)CO)C(=O)c2cc(NC(=O)Cc3ccccc3)ccc2O1`, the cytotoxicity call in the experiment on HSkMC and in the experiment with HepG2 was “inactive” each time. Also, the growth inhibition call in the experiment with S. aureus RN4220 is “inactive”.
Turning to `CS(=O)(=O)N[C@@H](C(=O)O)c1ccccc1`, the cytotoxicity call with HSkMC and in the experiment on HepG2 was “inactive” throughout. Besides, the growth inhibition call in the experiment on S. aureus RN4220 was “inactive”.
As to `C[C@H]1CCCCO[C@H](CN(C)C(=O)Nc2ccccc2)[C@@H](C)CN([C@@H](C)CO)C(=O)c2cc(NC(=O)Nc3ccc(F)cc3)ccc2O1`, in the experiment with HSkMC, the cytotoxicity call was “inactive”. In the experiment with HepG2, the cytotoxicity call was “active”. In addition, the growth inhibition call with S. aureus RN4220 was “inactive”.
Consider `Cc1[nH]c(=S)c(C#N)c(C)c1Cc1ccc(Cl)cc1Cl`, for which the cytotoxicity call in the experiment on HSkMC and in the experiment with HepG2 was “inactive” in each case. In addition, the growth inhibition call with S. aureus RN4220 is “inactive”.
As for `CC(=O)N(C)CP(=O)(O)CN1CCCC1=O`, the cytotoxicity call in the experiment with HSkMC and in the experiment with HepG2 was “inactive” in each case. The growth inhibition call in the experiment on S. aureus RN4220 was “inactive”.
In the case of `Cc1noc(C)c1S(=O)(=O)Nc1ccc2c(c1)C(=O)N([C@H](C)CO)C[C@H](C)[C@H](CN(C)C(=O)Nc1ccccc1)OCCCC[C@@H](C)O2`, the cytotoxicity call in the experiment on HSkMC and in the experiment with HepG2 was “inactive” each time. Moreover, the growth inhibition call with S. aureus RN4220 is “inactive”.
For `C[C@@H]1CN([C@H](C)CO)C(=O)c2cc(NC(=O)CCN3CCOCC3)ccc2O[C@H]1CN(C)S(=O)(=O)c1ccc(F)cc1`, the cytotoxicity call with HSkMC and with HepG2 was “inactive” each time. The growth inhibition call in the experiment on S. aureus RN4220 is “inactive”.
For `COc1ccc(NC(=O)Nc2ccc3c(c2)CC(=O)N([C@H](C)CO)C[C@@H](C)[C@@H](CN(C)S(=O)(=O)c2c(C)noc2C)O3)cc1`, the cytotoxicity call with HSkMC and with HepG2 was “inactive” throughout. Moreover, the growth inhibition call in the experiment on S. aureus RN4220 is “inactive”.
`C[C@@H]1CCCCO[C@@H](CN(C)C(=O)Nc2cccc3ccccc23)[C@H](C)CN([C@H](C)CO)C(=O)c2cc(N(C)C)ccc2O1`: the cytotoxicity call with HSkMC and in the experiment with HepG2 was “inactive” throughout. The growth inhibition call in the experiment with S. aureus RN4220 was “inactive”.
With `C=C1C(c2ccc(C)cc2)=CCc2cc(C)cc(C)c21`, the cytotoxicity call with HSkMC and in the experiment on HepG2 was “inactive” in each case. The growth inhibition call in the experiment on S. aureus RN4220 is “inactive”.
Consider `N#Cc1cc(F)cc(Oc2ccc(S(=O)(=O)C(F)F)c3c2CC(F)(F)[C@@H]3O)c1.N#Cc1cc(F)cc(Oc2ccc(S(=O)(=O)C(F)F)c3c2CC(F)(F)[C@H]3O)c1`, for which the cytotoxicity call in the experiment with HSkMC and in the experiment on HepG2 was “inactive” throughout. Further, the growth inhibition call with S. aureus RN4220 was “inactive”.
As for `Cc1noc(C)c1S(=O)(=O)Nc1cccc2c1O[C@H](CN(C)Cc1ccc(Oc3ccccc3)cc1)[C@H](C)CN([C@@H](C)CO)C2=O`, the cytotoxicity call in the experiment on HSkMC and with HepG2 was “inactive” throughout. For the same compound, the growth inhibition call in the experiment with S. aureus RN4220 is “inactive”.
On to `C[C@H](CO)N1C[C@H](C)[C@@H](CN(C)C(=O)Nc2ccccc2)OCCCC[C@H](C)Oc2ccc(NS(=O)(=O)c3ccccc3)cc2C1=O`, for which the cytotoxicity call in the experiment with HSkMC and in the experiment with HepG2 was “inactive” in each case. The growth inhibition call in the experiment with S. aureus RN4220 was “inactive”.
Take `COc1ccc(COC[C@@]23Oc4ccccc4[C@@H](NC(=S)N2C)[C@H]3CO[Si](C)(C)C(C)(C)C)cc1`: the cytotoxicity call with HSkMC is “inactive”. Besides, the cytotoxicity call in the experiment with HepG2 is “active”. Also, in the experiment on S. aureus RN4220, the growth inhibition call is “inactive”.
As for `Cc1noc(C)c1NC(=O)Nc1ccc2c(c1)C(=O)N([C@@H](C)CO)C[C@@H](C)[C@@H](CN(C)C(=O)Cc1ccccc1)OCCCC[C@@H](C)O2`, the cytotoxicity call with HSkMC and with HepG2 was “inactive” throughout. The growth inhibition call with S. aureus RN4220 was “inactive”.
In the case of `O=C(C[C@@H]1CC=CCCC(=O)OCCNC1=O)NCCO`, the cytotoxicity call in the experiment with HSkMC and with HepG2 was “inactive” in each case. Besides, the growth inhibition call in the experiment with S. aureus RN4220 is “inactive”.
For `COc1ccc(S(=O)(=O)N(C)C[C@@H]2OCCCC[C@@H](C)Oc3ccc(NC(=O)Nc4ccccc4)cc3C(=O)N([C@H](C)CO)C[C@H]2C)cc1`, the cytotoxicity call in the experiment on HSkMC and with HepG2 was “inactive” in each case. Also, the growth inhibition call in the experiment with S. aureus RN4220 is “inactive”.
As for `CC(C)(C)[S@@](=O)N1Cc2cc(C(=O)NCc3ccccn3)nc(-c3cccc(-c4ccccc4F)c3)c2[C@H]1CCO`, the cytotoxicity call in the experiment on HSkMC (human skeletal muscle cells) and in the experiment with HepG2 was “inactive” each time. Moreover, the growth inhibition call with S. aureus RN4220 is “inactive”.
Take `C[C@@H]1CCCCO[C@@H](CN(C)C(=O)Nc2ccccc2)[C@@H](C)CN([C@H](C)CO)C(=O)c2cc(NS(=O)(=O)c3ccc(F)cc3)ccc2O1`: the cytotoxicity call with HSkMC and with HepG2 was “inactive” throughout. Further, the growth inhibition call with S. aureus RN4220 was “inactive”.
